Whole data set: some 33,000 sequences, median “E-score (dimensionless, -0.5 to 0.5)” near -0.058, cut for the highest 2% near 0.35. This is one part of the list.
What follows are sequences tested on MvaT (assay: PBM 8-mer E-score (mean of HK and ME arrays) (E-score (dimensionless, -0.5 to 0.5)); higher = stronger relative binding preference; most listed sequences are background and not binding sites).
Summary of the method: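 Full-length P. aeruginosa MvaT carrying an N-terminal glutathione S-transferase tag was tested by protein binding microarray following a previously described protocol. Two universal double-stranded 60-mer arrays, ME and HK, were used, each with a constant 25-mer primer region and a variable 35-mer region covering all 8-mers. The rank-based E-score is the mean of the two arrays, parsed with a custom script. Its range runs from -0.5 to 0.5 for each 8-mer.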

Row | Sequence | PBM 8-mer E-score
1 | AGGGCAAT | -0.0363
2 | AAGGAAAA | 0.0771
3 | CCAGTATC | -0.091
4 | CTATGCGA | -0.129
5 | CCTTGAGA | -0.0961
6 | AACTTAAT | 0.381
7 | ACATAGTA | 0.278
8 | AACATATG | 0.254
9 | AGGGTAAA | 0.134
10 | CCAATCAA | 0.00231
11 | CCCGTGCG | -0.273
12 | GGCTAGCA | -0.0963
13 | ACCAGATC | -0.169
14 | CATGACCA | -0.0462
15 | ATAATCAT | 0.266
16 | AGAGGAAA | -0.146
17 | CTGTAGAA | 0.0708
18 | AACTCCGA | 0.0444
19 | ACTAACAG | 0.0841
20 | CCAATTAA | 0.306
21 | AAAAACGG | 0.0301
22 | AGTGTTAA | 0.175
23 | GAGTCAGA | -0.134
24 | CCGTTATA | 0.308
25 | ACACAGAG | -0.0634

Row | Sequence | PBM 8-mer E-score
26 | ACTGAGCC | -0.174
27 | AGGACAAT | 0.0949
28 | ATGCATTA | 0.241
29 | GATAGCAA | 0.0375
30 | AAAACAGT | 0.242
31 | ACAGCCCG | -0.169
32 | ATAGTCTC | 0.0377
33 | ACTCAGAC | -0.142
34 | AGTACGGA | -0.0816
35 | AAAGCTTT | 0.1
36 | AGTCTGAA | -0.153
37 | ACGCCTTG | -0.161
38 | AGAGAGAA | -0.213
39 | AAAAGGCC | -0.0414
40 | CTGATGGA | -0.141
41 | AATCTCTG | -0.0793
42 | CAATAAAA | 0.286
43 | CCGGCTGC | -0.309
44 | CACAACGA | 0.0491
45 | CAAGGTGG | -0.121
46 | CGGTTTCA | -0.118
47 | CCTTGTGA | -0.148
48 | CGCTGCCC | -0.265
49 | AAATCGCA | -0.0304
50 | AGCTAAGG | -0.212

Row | Sequence | PBM 8-mer E-score
51 | ACCACCAC | -0.0821
52 | AGAAATTC | 0.0242
53 | AATTATTC | 0.352
54 | CGGGGTAG | -0.19
55 | CAGTGCCG | -0.171
56 | GCAGATTA | 0.108
57 | ATAACTGG | 0.213
58 | GAAGGAGA | -0.255
59 | AAATCCAA | 0.113
60 | CAGAGAGA | -0.148
61 | GGAGAACA | 0.0627
62 | CAAACCTG | 0.021
63 | CTAGCAAG | -0.171
64 | ACAATCCG | 0.00493
65 | GGTAAAAC | -0.00823
66 | CACGTATC | -0.0917
67 | CAGGGTCA | -0.204
68 | ATGGAGGA | -0.25
69 | AGGGCGCA | -0.172
70 | CTGAGCGA | -0.135
71 | GAGGCCTA | -0.23
72 | ATTGCAAT | 0.27
73 | ATCGACAA | 0.105
74 | AGGATGGA | -0.127
75 | AGTACCCC | -0.152

Row | Sequence | PBM 8-mer E-score
76 | ATATTAGG | 0.309
77 | GGATAACA | 0.226
78 | ACGTTCAA | -0.00603
79 | AGCATGTC | -0.109
80 | CCCTAGAG | -0.225
81 | GCCTATCC | -0.15
82 | ATCAAAGA | -0.0471
83 | GATTCGGC | -0.177
84 | TAACGACA | 0.158
85 | GTAGCTCA | -0.186
86 | AATCGAAC | 0.176
87 | AGCCTGCG | -0.264
88 | GTCCCCAC | -0.299
89 | GAGTGGTA | 0.0781
90 | ATGTCAAT | 0.0951
91 | ATCCCATC | -0.0397
92 | ATTTGGGA | 0.113
93 | ACGTGCCT | -0.202
94 | GTTACAAC | 0.171
95 | ATCTTCGG | -0.00976
96 | AAACTAAT | 0.335
97 | CGGACCCC | -0.254
98 | ACATCAGC | -0.0441
99 | GACTAGAA | 0.173
100 | ATCGGCGG | -0.201

Row | Sequence | PBM 8-mer E-score
101 | CTTGGGTA | -0.118
102 | GTATCAGA | 0.0638
103 | GGACTGCA | -0.0995
104 | CAGTTGTC | -0.0191
105 | TATAGGAA | 0.0701
106 | GACTCACC | -0.19
107 | GCCACTCA | -0.136
108 | CTTCGAAC | 0.0106
109 | AATAACAC | 0.331
110 | GACCAAGC | -0.244
111 | AAACCCAG | 0.0361
112 | ACATCAAC | 0.013
113 | CCACCAAG | -0.139
114 | ATAGCCAG | -0.194
115 | GAAAAGGA | -0.0534
116 | GGACAAAC | 0.017
117 | ATCAATGC | -0.0304
118 | AACATCCA | 0.201
119 | TCCTGCCA | -0.192
120 | GAGCTAAA | -0.16
121 | AAATTGAT | 0.253
122 | ATTTGTGA | 0.131
123 | CCTGATCG | -0.219
124 | ACGGGTCA | -0.315
125 | ATGGAAAA | 0.116

Row | Sequence | PBM 8-mer E-score
126 | ACCTCCAA | -0.114
127 | ACAACTGC | 0.00934
128 | AAATACAT | 0.33
129 | ATGATCTG | -0.0734
130 | AGGGACCT | -0.25
131 | CCGGGAGC | -0.164
132 | CAACATCC | 0.0934
133 | CGACAAGC | -0.242
134 | CGCTGTGC | -0.129
135 | CAAACCAC | 0.0416
136 | ACATCAAT | 0.155
137 | GAAGTTAA | 0.317
138 | CCAAAGTA | 0.0463
139 | AGGCTGAG | -0.218
140 | ATTTGACG | 0.0587
141 | GAACCCAA | -0.023
142 | ATCAGATG | -0.0112
143 | CCTCCCTC | -0.212
144 | GCAACTCC | -0.0294
145 | CGTGATAC | -0.076
146 | AATGCGGC | -0.0157
147 | GGATCTCA | -0.294
148 | GTATGGGA | -0.132
149 | ACACTCGC | -0.00864
150 | CGCTAAGC | -0.208

Row | Sequence | PBM 8-mer E-score
151 | AGGACTGA | -0.22
152 | AGTCATTA | 0.14
153 | ACAGAGAC | -0.141
154 | GAGTTGGA | -0.079
155 | GACATCCA | -0.0444
156 | GCCAATCA | 0.0332
157 | GAGGCAGC | -0.282
158 | CGGTGGTA | -0.0955
159 | GTAGGTCA | -0.116
160 | ACCTGCAC | -0.11
161 | CATATCGC | 0.0191
162 | GGGGGAAC | -0.217
163 | AAACCACG | 0.0879
164 | CCCGAGAC | -0.177
165 | GAAATTGC | 0.158
166 | GGTTACAC | -0.12
167 | ATTAAATC | 0.382
168 | ATTGATTA | 0.285
169 | GTATAATA | 0.416
170 | ACGTCGCC | -0.0866
171 | ACCGGGGG | -0.206
172 | GTCCTAAA | 0.00186
173 | GTGAGTAA | 0.102
174 | AGGGCATA | -0.0648
175 | CGTGTTAC | 0.0568

Row | Sequence | PBM 8-mer E-score
176 | TACAGGCA | 0.0123
177 | GTGTACAC | 0.0349
178 | CCTGTCTC | -0.0679
179 | AAGTGCAC | 0.12
180 | AATAATAC | 0.419
181 | CAATGTAG | 0.114
182 | GACGTAGA | -0.116
183 | AGGTCACC | -0.292
184 | AGCCAGAG | -0.306
185 | AGATCATG | -0.228
186 | ACGCCGGG | -0.17
187 | ACCCAGCT | -0.0885
188 | AGTCATGA | 0.0663
189 | CTCCGTAC | -0.194
190 | CGATAAAG | 0.152
191 | ACACGCTA | 0.113
192 | GCGACTTA | -0.0922
193 | ATGGTAGG | 0.0483
194 | ATTGTGCC | -0.00899
195 | CAAAGTCG | -0.05
196 | AGTGGTAG | 0.00056
197 | GCGCGAAC | -0.099
198 | CTTAGGGC | -0.313
199 | CAGTACGA | 0.0694
200 | CTAGATTA | 0.207

Row | Sequence | PBM 8-mer E-score
201 | ACCGAAAC | -0.143
202 | TCCAACGA | -0.124
203 | TAGTTCGA | 0.233
204 | AACGGGAT | 0.0519
205 | CTATAAAC | 0.223
206 | CTACGCCC | -0.179
207 | CGTTTTAC | -0.0398
208 | CCACCAGG | -0.238
209 | AGTAGGGC | -0.239
210 | ACCCTTTG | -0.137
211 | AGGGATGA | -0.0342
212 | CAGAATTA | 0.202
213 | CAGTGGCA | -0.0859
214 | GTTCCATA | 0.117
215 | ACAAATGT | 0.0847
216 | CAGCAAGG | -0.204
217 | GAGGAAGA | -0.133
218 | AAATTTCC | 0.224
219 | AGTAGGAT | -0.047
